The values below come from a collection of fitness landscapes (doi:10.1016/j.celrep.2020.107928).

The full ranking holds about 81,000 sequences; the median of “one-hybrid fitness for binding parS DNA” is about -0.17, and the highest 2% start at about 0.51. The list shows a part of the results. Where only a bound is given, the exact number is not on record here.

The labels stand for the following.
B1: Caulobacter ParB omega fusion; a variant is named by its letters at X, in order, B8GW30 (parent)
chain: MESVVVGEPGMSEGRRGLGRGLSALLGEVDAAPAQAPGEQLGGSREAPIEILQRNPDQPRRTFREEDLEDLSNSIREKGVLQPILVRPSPDTAGEYQIVAGERAWRAAQRAGLKTVPIMVRELDDLAVLEIGIIENVQRADLNVLEEALSYKVLMEKFERTQENIAQTIGKSXSHVANXMRLLXLPDEVQSYLVSGELTAXHARAIAAAADPVALAKQIIEGGLSVRETEALARKAPNLSAGKSKGGRPPRVKDTDTQALESDLSSVLGLDVSIDHRGSTGTLTITYATLEQLDDLCNRLTRGI

The variants in the experiment derive from B1. Briefly: one-hybrid fitness for binding parS DNA (scaled: cognate 1, non-cognate 0); higher = stronger binding. The settings on record: with parS DNA site. Put shortly:
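On M9-minus-histidine containing 0.1 mM IPTG and 5 mM 3-AT, E. coli USO cells with a HIS3 reporter, site 19 bp from the promoter, grew 48 hours at 37°C to select Caulobacter ParB libraries randomised at four specificity codons. Plasmids from before and after were Illumina-sequenced, with three replicate libraries pooled and variants under 10 reads left out. Fitness is the log change in variant-to-wild-type read ratio, rescaled against cognate and non-cognate.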
Consider TGAR, for which the “one-hybrid fitness for binding parS DNA” value is no more than 0.2.

Regarding LRIS, the “one-hybrid fitness for binding parS DNA” value is no more than 0.2.

For the variant FHRG, the “one-hybrid fitness for binding parS DNA” value is no more than 0.2.

Take VINC: the “one-hybrid fitness for binding parS DNA” value was no more than 0.2.

For the variant NSSE, the “one-hybrid fitness for binding parS DNA” value was no more than 0.2.

With SIKV, the “one-hybrid fitness for binding parS DNA” value is no more than 0.2.

With YGRY, the “one-hybrid fitness for binding parS DNA” value was no more than 0.2.

Consider HAYG, for which the “one-hybrid fitness for binding parS DNA” value was no more than 0.2.

Take KDPE: the “one-hybrid fitness for binding parS DNA” value was no more than 0.2.

EQLC: the “one-hybrid fitness for binding parS DNA” value was no more than 0.2.

With CCPR, the “one-hybrid fitness for binding parS DNA” value was no more than 0.2.

As for PTVT, the “one-hybrid fitness for binding parS DNA” value was no more than 0.2.

On to KRRH, for which the “one-hybrid fitness for binding parS DNA” value was no more than 0.2.

Turning to KNKT, the “one-hybrid fitness for binding parS DNA” value was no more than 0.2.

In the case of RCQE, the “one-hybrid fitness for binding parS DNA” value was no more than 0.2.

Regarding DMRV, the “one-hybrid fitness for binding parS DNA” value is no more than 0.2.

As for EGMW, the “one-hybrid fitness for binding parS DNA” value is no more than 0.2.

As to ASKK, the “one-hybrid fitness for binding parS DNA” value was no more than 0.2.

Regarding WTES, the “one-hybrid fitness for binding parS DNA” value was no more than 0.2.

As to EASA, the “one-hybrid fitness for binding parS DNA” value was no more than 0.2.

Turning to GFDT, the “one-hybrid fitness for binding parS DNA” value is no more than 0.2.

Take GFLM: the “one-hybrid fitness for binding parS DNA” value is no more than 0.2.

Take QNCP: the “one-hybrid fitness for binding parS DNA” value was no more than 0.2.

In the case of QICF, the “one-hybrid fitness for binding parS DNA” value is no more than 0.2.

On to HCNH, for which the “one-hybrid fitness for binding parS DNA” value is no more than 0.2.

Regarding TTND, the “one-hybrid fitness for binding parS DNA” value was no more than 0.2.

Regarding SYIS, the “one-hybrid fitness for binding parS DNA” value is no more than 0.2.

QIEC: the “one-hybrid fitness for binding parS DNA” value was no more than 0.2.

On to RKSH, for which the “one-hybrid fitness for binding parS DNA” value is no more than 0.2.

Consider LLAG, for which the “one-hybrid fitness for binding parS DNA” value is no more than 0.2.

For the variant SKPC, the “one-hybrid fitness for binding parS DNA” value is no more than 0.2.

In the case of AVAT, the “one-hybrid fitness for binding parS DNA” value is no more than 0.2.

For QVSR, the “one-hybrid fitness for binding parS DNA” value was no more than 0.2.

As for FLDS, the “one-hybrid fitness for binding parS DNA” value is no more than 0.2.

As to TSRV, the “one-hybrid fitness for binding parS DNA” value is no more than 0.2.

Take ISIS: the “one-hybrid fitness for binding parS DNA” value was no more than 0.2.

With FTLR, the “one-hybrid fitness for binding parS DNA” value was no more than 0.2.

As to YGDC, the “one-hybrid fitness for binding parS DNA” value was no more than 0.2.

Turning to SYAT, the “one-hybrid fitness for binding parS DNA” value is no more than 0.2.

On to AVVD, for which the “one-hybrid fitness for binding parS DNA” value was no more than 0.2.

With PKQG, the “one-hybrid fitness for binding parS DNA” value was no more than 0.2.

For the variant ALDQ, the “one-hybrid fitness for binding parS DNA” value was no more than 0.2.

As to SSQW, the “one-hybrid fitness for binding parS DNA” value is no more than 0.2.

For the variant YKRL, the “one-hybrid fitness for binding parS DNA” value was no more than 0.2.

In the case of NRRV, the “one-hybrid fitness for binding parS DNA” value was no more than 0.2.

As to MVHW, the “one-hybrid fitness for binding parS DNA” value was no more than 0.2.

With TDAA, the “one-hybrid fitness for binding parS DNA” value was no more than 0.2.

Regarding PQFC, the “one-hybrid fitness for binding parS DNA” value is no more than 0.2.

Regarding HGDN, the “one-hybrid fitness for binding parS DNA” value was no more than 0.2.

With LHWV, the “one-hybrid fitness for binding parS DNA” value was no more than 0.2.

With VPFF, the “one-hybrid fitness for binding parS DNA” value is no more than 0.2.

RILK: the “one-hybrid fitness for binding parS DNA” value was no more than 0.2.

Regarding SADK, the “one-hybrid fitness for binding parS DNA” value was no more than 0.2.

Regarding AEYA, the “one-hybrid fitness for binding parS DNA” value was no more than 0.2.

Turning to QREV, the “one-hybrid fitness for binding parS DNA” value is no more than 0.2.

For QFCS, the “one-hybrid fitness for binding parS DNA” value was no more than 0.2.

Consider LSSW, for which the “one-hybrid fitness for binding parS DNA” value was no more than 0.2.

With NEWS, the “one-hybrid fitness for binding parS DNA” value was no more than 0.2.

Consider NRQT, for which the “one-hybrid fitness for binding parS DNA” value is no more than 0.2.

In the case of EPGN, the “one-hybrid fitness for binding parS DNA” value was 0.238.

For the variant SEQC, the “one-hybrid fitness for binding parS DNA” value is no more than 0.2.

As for QTPW, the “one-hybrid fitness for binding parS DNA” value was no more than 0.2.

Regarding TIMR, the “one-hybrid fitness for binding parS DNA” value was no more than 0.2.

As for RKYT, the “one-hybrid fitness for binding parS DNA” value came to 0.868.

Regarding LLVD, the “one-hybrid fitness for binding parS DNA” value is no more than 0.2.

Take RAAA: the “one-hybrid fitness for binding parS DNA” value was found to be 0.592.

RHSQ: the “one-hybrid fitness for binding parS DNA” value is no more than 0.2.

Consider YRLG, for which the “one-hybrid fitness for binding parS DNA” value is no more than 0.2.

RVRH: the “one-hybrid fitness for binding parS DNA” value came to 0.203.

For RVSW, the “one-hybrid fitness for binding parS DNA” value was found to be 0.224.

On to HCTP, for which the “one-hybrid fitness for binding parS DNA” value is no more than 0.2.

For the variant CQHY, the “one-hybrid fitness for binding parS DNA” value is no more than 0.2.

In the case of GLVS, the “one-hybrid fitness for binding parS DNA” value is no more than 0.2.

Turning to RISI, the “one-hybrid fitness for binding parS DNA” value is no more than 0.2.

For KNGR, the “one-hybrid fitness for binding parS DNA” value is no more than 0.2.

IEPR: the “one-hybrid fitness for binding parS DNA” value was no more than 0.2.
